The supplement of paper PMC10441789
The other results are listed elsewhere or left out. Antibody binding of pooled human sera (four to six donors per pool; dilution not stated) to peptides of the Trypanosoma cruzi antigen TSSA on microarrays. Quantile-normalised fluorescence in arbitrary units, mean of duplicate arrays; higher = more binding. No active / inactive call. The uninfected pools are read here as the healthy donors of the same country. The strongest signals lie near the top of the scale (about 60,000).

What follows are sequences tested on pooled sera of chronic Chagas disease patients, Argentina (assay: antibody binding signal (normalised fluorescence) (arbitrary fluorescence units); higher = stronger serum antibody binding to peptide).
Protocol: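 Microarray of 15-residue peptides over residues 30-55 of Trypanosoma cruzi TSSAII, each with 1 to 10 substitutions at naturally variable positions, probed with one serum pool per country.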

| Sequence | antibody binding signal |
| --- | --- |
| TENKAAAGETPSPPG | 33800 |
| TENKTAAGEAPSQPG | 22300 |
| GKDKKTAAGGAPSQP | 285 |
| TDNKTAAGGAPSQSG | 294 |
| GTEKKAATGGAPSPP | 1480 |
| KDKKTAAGETPSQPG | 221 |
| KEKKAATGGAPSPSG | 449 |
| PPSGTEKKPAAGGTP | 41400 |
| TISTPPSGKEKKTAT | 14300 |
| EKKPAAGGTPSPSGA | 546 |
| GKEKKAAAGETPSQP | 4510 |
| ISTPPSGKDKKTATG | 18800 |
| GTEKKPAAGGAPSQP | 1420 |
| KDKKAAAGETPSPSG | 163 |
| SGTDNKTAAGETPSQ | 423 |
| SSTPPSGTENKPAAG | 53800 |
| GKDKKPATGGAPSPP | 565 |
| SGKENKTAAGETPSP | 2950 |
| GTDNKPATGGAPSQS | 3900 |
| EKKAATGETPSPPGA | 1970 |

| Sequence | antibody binding signal |
| --- | --- |
| GKENKTAAGGAPSPP | 828 |
| KKAATGEAPSQPGAS | 9150 |
| GTEKKAAAGGAPSQS | 361 |
| DKKPAAGGTPSPSGA | 652 |
| GKDNKTAAGGAPSQS | 311 |
| KDNKTATGEAPSPSG | 16000 |
| KDKKAAAGGTPSQSG | 187 |
| EKKPAAGGTPSPPGA | 466 |
| SGKENKAATGGAPSP | 3510 |
| GTEKKPAAGGTPSPS | 2420 |
| TEKKPAAGGAPSQPG | 1190 |
| PSGKENKTAAGGTPS | 6780 |
| PSGKEKKPATGGTPS | 8500 |
| ENKAATGETPSPSGA | 4810 |
| GKDNKAATGEAPSQS | 31900 |
| TISTPPSGTENKPAT | 46000 |
| KDKKTAAGGAPSQPG | 209 |
| PSGKENKAAAGGAPS | 8590 |
| GTENKAATGEAPSQP | 41400 |
| KDNKAATGETPSPPG | 1840 |
